According to PubChem BioAssay AID651820 (National Center for Advancing Translational Sciences (NCATS), 2012):
Out of some 340,000 compounds screened, about 12,000 (3.5%) were called active. The inconclusive results got no clear call from the source; some entries with a clear call stand among them for comparison. The call rests on the fitted dose curve; in most records, active means well fitted inhibition curve with a large enough effect; inconclusive means small, poorly fitted or top-dose-only effect, or another doubt; inactive means no such curve, though single readings can be large or run the other way. No potency is given beside an inconclusive call; the fits are too rough.

Experiment: qHTS Assay for Inhibitors of Hepatitis C Virus (HCV)
Conditions: Huh7.5.1 HCVcc-Cre (HCVcc is cell-culture hepatitis C virus) infection, luciferase reporter, 44 h; activity change, negative = inhibition: at 41.8 µM (top of the series) unless noted
Summary of the method: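 HCVcc-Cre virus at an moi near 0.5 was added right after compound to cells cultured 4 h from seeding (1,000 cells/well). Luciferase activity was determined 44 h later, 15 min after substrate addition at RT.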
On the % scale 0 is the no-effect control and ±100 the full control effect; potency means the concentration at half of the fitted maximal effect; tags describe the fitted curve by direction and shape.

Question: With `OCc1ccccc1OCCCN1CCC(Cc2ccccc2)CC1` as the molecule, how does the Potency read?
Answer: inconclusive [inhibitor, partial curve]

Question: With `COc1ccc(S(=O)(=O)N(C)c2nc3ccccc3n3c(CC(C)C)nnc23)cc1` as the molecule, how does the Potency read?
Answer: inconclusive [inhibitor, single point]

Question: With `O=C(Nc1cccnc1)c1cnn2c(C(F)F)cc(C3CC3)nc12` as the molecule, how does the Potency read?
Answer: inconclusive [inhibitor, single point]

Question: For `CN=c1scc(C)n1/N=C/c1ccc(O)cc1`, which Potency is on record?
Answer: inconclusive [inhibitor, full curve, poor fit]

Question: For `Cc1ccc(C)c(NC(=S)Nc2cccc3cnccc23)c1`, which Potency is on record?
Answer: inconclusive [inhibitor, single point]

Question: For `CC(=O)NC(c1ccccc1)c1cc([N+](=O)[O-])c2cccnc2c1O` (stereo not given), which Potency is on record?
Answer: inconclusive [inhibitor, single point]

Question: Which Potency does the source give for `C=CC[C@@H](CC(=O)N(CCO)Cc1ccccc1)C(=O)N[C@H](COC(=O)[C@@H](CC=C)CC(=O)OC(C)(C)C)Cc1c[nH]c2ccccc12` here?
Answer: active: 11.2 µM

Question: For `CCN(CC)CCN(C(=O)c1ccc2ccccc2c1)c1nc2ccc(OC)cc2s1`, which Potency is on record?
Answer: inconclusive [inhibitor, single point]

Question: Which “activity change, negative = inhibition” value does the source give for `COc1ccc(S(=O)(=O)NCc2ccc(C(=O)O)cc2)cc1` here?
Answer: inactive: 13.7%

Question: With `CCC(C(=O)N1CCN(c2ccccn2)CC1)n1nc(C)n2c(cc3occc32)c1=O` (stereo not given) as the molecule, how does the Potency read?
Answer: inconclusive [inhibitor, partial curve]

Question: With `O=C1NCCCC2c3c(cc(Br)c(O)c3Br)OC12N1CCOCC1` (stereo not given) as the molecule, how does the “activity change, negative = inhibition” value read?
Answer: inactive: 8.61%

Question: Which “activity change, negative = inhibition” value does the source give for `C/C(=N/NC(=O)c1ccco1)c1ccc(Br)s1` here?
Answer: inactive: -12.9%

Question: For `CC(=O)N(C)c1ccc(NC(=O)Nc2ccc(C)c(C)c2)cc1`, which Potency is on record?
Answer: inconclusive [inhibitor, single point]

Question: For `CCOC(=O)c1cc(-c2ccccc2)nc2c(O)cccc12`, which Potency is on record?
Answer: inconclusive [inhibitor, single point]

Question: Which Potency does the source give for `CCc1ccc(Nc2n[n+](-c3ccccc3)c(-c3c(Cl)cccc3Cl)s2)cc1` here?
Answer: active: 5.62 µM

Question: With `Cc1cccc(-c2cccc(NC(=O)C3CCCN(C(=O)c4cccnc4)C3)c2)c1` (stereo not given) as the molecule, how does the Potency read?
Answer: inconclusive [inhibitor, single point]

Question: With `O=C(NC12CC3CC(CC(C3)C1)C2)c1ccc(-c2cccc(Cl)c2)o1` as the molecule, how does the Potency read?
Answer: inconclusive [inhibitor, single point]

Question: For `Cc1cccc(/C(N)=N/OC(=O)c2ccncc2)c1`, which “activity change, negative = inhibition” value is on record?
Answer: inactive: 13.1%

Question: For `CC(NC(=O)c1ccccc1F)c1nnc(SCC(=O)NC2=NCCS2)n1C` (stereo not given), which “activity change, negative = inhibition” value is on record?
Answer: inactive: 2.81%

Question: For `CN(CCc1ccccc1)C(=O)c1ccc(NC(=O)Cc2cccc(NC(=O)C3CCN(C(=O)c4ccccc4)CC3)c2)cc1`, which activity change, negative = inhibition is on record?
Answer: inactive: -12.6% [at 8.37 µM]

Question: With `Clc1c(CSc2nc3ccccc3o2)nc2sccn12` as the molecule, how does the Potency read?
Answer: inconclusive [inhibitor, single point]

Question: With `CC(Oc1cc(F)ccc1[N+](=O)[O-])C(=O)N(C)CC(=O)Nc1ccccc1C(F)(F)F` (stereo not given) as the molecule, how does the Potency read?
Answer: inconclusive [inhibitor, single point]

Question: With `Cc1cccc(-n2c(SCC(N)=O)nc3c(c2=O)C2(CCCC2)Cc2ccccc2-3)c1` as the molecule, how does the Potency read?
Answer: inconclusive [inhibitor, single point]

Question: For `CCN(CC)c1ccc(/C=N/OCC(=O)N2CCCc3ccccc32)cc1`, which “activity change, negative = inhibition” value is on record?
Answer: inactive: -26.5%

Question: With `COc1cc(-c2c(C#N)c(N)nc3c2c(C)nn3-c2ccc(C)c(C)c2)cc(OC)c1OC` as the molecule, how does the Potency read?
Answer: inconclusive [inhibitor, partial curve]

Question: For `COC(=O)C1SCCN1S(=O)(=O)c1ccc(Cl)cc1` (stereo not given), which “activity change, negative = inhibition” value is on record?
Answer: inactive: 0.125%

Question: For `CC1Cc2ccccc2N1C(=O)COC(=O)c1c2c(nc3ccccc13)CCCCC2` (stereo not given), which Potency is on record?
Answer: inconclusive [inhibitor, partial curve]

Question: Which Potency does the source give for `COc1ccccc1NC(=O)Nc1nc2ccc(S(N)(=O)=O)cc2s1` here?
Answer: inconclusive [inhibitor, partial curve]

Question: With `Nc1ccc2nc(C(F)(F)F)[nH]c2c1` as the molecule, how does the “activity change, negative = inhibition” value read?
Answer: inactive: 26.4%

Question: Which Potency does the source give for `COc1ccccc1C(O)(c1ccccc1)C(CN1CCOCC1)c1ccccc1` (stereo not given) here?
Answer: inconclusive [inhibitor, single point]

Question: For `CC(CNC(=O)COC(=O)c1cccnc1Cl)c1ccccc1` (stereo not given), which “activity change, negative = inhibition” value is on record?
Answer: inactive: 1.69%

Question: Which Potency does the source give for `Cc1cccc(NC(=O)c2ccc([N+](=O)[O-])o2)n1` here?
Answer: inconclusive [inhibitor, single point]

Question: For `CCOc1ccccc1C(=O)NC(C)c1ccc(-n2ccnc2)cc1` (stereo not given), which Potency is on record?
Answer: inconclusive [inhibitor, single point]

Question: Which “activity change, negative = inhibition” value does the source give for `O=C(O)c1cc(-c2cc3ccccc3o2)nn1-c1ccccc1` here?
Answer: inactive: 3.17%

Question: For `COc1cc2c(cc1OC)CN(Cc1cc(=O)n3c(-c4ccccc4)csc3n1)CC2`, which “activity change, negative = inhibition” value is on record?
Answer: inactive: -29.7%

Question: With `Cc1cc2c(c(=O)n1Cc1cccnc1)C(c1ccccc1)C(C#N)=C(N)O2` (stereo not given) as the molecule, how does the “activity change, negative = inhibition” value read?
Answer: inactive: -6.36%

Question: Which Potency does the source give for `CC(Nc1cc(N2CCCC2)ccc1[N+](=O)[O-])c1ccccc1` (stereo not given) here?
Answer: inconclusive [inhibitor, single point]

Question: Which Potency does the source give for `CC1CCCN(CCCNC(=O)C2CCN(S(=O)(=O)N3CCC4(CC3)OCCO4)CC2)C1` (stereo not given) here?
Answer: inconclusive [inhibitor, single point]

Question: For `COc1ccc(/C=N/Nc2nc(-c3cccc(S(=O)(=O)N4CCCC4)c3)cs2)cc1OC`, which Potency is on record?
Answer: active: 10 µM

Question: Which “activity change, negative = inhibition” value does the source give for `O=C(CN1C(=O)/C(=C/c2ccccc2F)SC1=S)NC1C=CS(=O)(=O)C1` (stereo not given) here?
Answer: inactive: -5.93%

Question: For `O=C(Nc1ccc(N2CCOCC2)c(Cl)c1)c1ccc2c(c1)OCCO2`, which Potency is on record?
Answer: active: 11.2 µM

Question: With `O=C(CNC(=O)c1ccc2c(c1)OCCO2)N/N=C/c1ccc([N+](=O)[O-])cc1` as the molecule, how does the Potency read?
Answer: inconclusive [inhibitor, partial curve]

Question: For `O=C(COc1ccc2ccccc2c1)N1CCN(Cc2c[nH]c3ccccc23)CC1`, which Potency is on record?
Answer: inconclusive [inhibitor, single point]

Question: With `CCC(C(=O)NCc1ccco1)N(C(=O)CNS(=O)(=O)c1ccc(C)cc1)c1ccccc1OC` (stereo not given) as the molecule, how does the “activity change, negative = inhibition” value read?
Answer: inactive: 21.5%

Question: For `O=C1C(NS(=O)(=O)c2cccs2)=C(N2CCN(Cc3ccccc3)CC2)C(=O)c2ccccc21`, which “activity change, negative = inhibition” value is on record?
Answer: inactive: -14.8%
